# From the supplement of paper PMC8728848
# Some of the results follow.
# Legend:
# Assay in all cases: glycan array binding signal (z-score within array); higher = stronger binding
# Details in all cases: glycan notation: IUPAC condensed, linker removed
# [1] = molecular target: Gal(b1-4)GlcNAc(b1-2)[Gal(b1-4)GlcNAc(b1-6)]Man(a1-6)[GlcNAc(b1-4)][Gal(b1-4)GlcNAc(b1-2)Man(a1-3)]Man(b1-4)GlcNAc(b1-4)GlcNAc
# Procedure, shortened: (§1)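 Glycan array data came from 3228 arrays in the Consortium for Functional Glycomics database, and only arrays with an available protein sequence were kept. Glycan names were put into IUPAC-condensed notation, and columns mapping to the same glycan were averaged. The binding signal is a within-array Z-score, averaged across arrays of one protein sequence run at different concentrations or buffers and across linkers. A negative Z-score can be read as non-binding.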
# [2] = molecular target: Gal(b1-4)GlcNAc(b1-2)[Gal(b1-4)GlcNAc(b1-6)]Man(a1-6)[GlcNAc(b1-4)][Gal(b1-4)GlcNAc(b1-2)[Gal(b1-4)GlcNAc(b1-4)]Man(a1-3)]Man(b1-4)GlcNAc(b1-4)[Fuc(a1-6)]GlcNAc
# Procedure, shortened: as §1
# [3] = molecular target: Gal(b1-4)GlcNAc(b1-3)Gal(b1-3)GalNAc
# Procedure, shortened: as §1
# [4] = molecular target: Gal(b1-4)GlcNAc(b1-3)Gal(b1-3)GlcNAc
# Procedure, shortened: as §1
# [5] = molecular target: Gal(b1-4)GlcNAc(b1-3)Gal(b1-4)Glc
# Procedure, shortened: as §1
# [6] = molecular target: Gal(b1-4)GlcNAc(b1-3)Gal(b1-4)GlcNAc
# Procedure, shortened: as §1
# [7] = molecular target: Gal(b1-4)GlcNAc(b1-3)Gal(b1-4)GlcNAc(b1-2)Man(a1-3)[Gal(b1-4)GlcNAc(b1-3)Gal(b1-4)GlcNAc(b1-2)Man(a1-6)]Man(b1-4)GlcNAc(b1-4)GlcNAc
# Procedure, shortened: as §1
# [8] = molecular target: Gal(b1-4)GlcNAc(b1-3)Gal(b1-4)GlcNAc(b1-2)Man(a1-3)[Gal(b1-4)GlcNAc(b1-3)Gal(b1-4)GlcNAc(b1-2)Man(a1-6)]Man(b1-4)GlcNAc(b1-4)[Fuc(a1-6)]GlcNAc
# Procedure, shortened: as §1
# [9] = molecular target: Gal(b1-4)GlcNAc(b1-3)Gal(b1-4)GlcNAc(b1-2)[Gal(b1-4)GlcNAc(b1-3)Gal(b1-4)GlcNAc(b1-6)]Man(a1-6)[Gal(b1-4)GlcNAc(b1-3)Gal(b1-4)GlcNAc(b1-2)Man(a1-3)]Man(b1-4)GlcNAc(b1-4)GlcNAc
# Procedure, shortened: as §1
# [10] = molecular target: Gal(b1-4)GlcNAc(b1-3)Gal(b1-4)GlcNAc(b1-2)[Gal(b1-4)GlcNAc(b1-3)Gal(b1-4)GlcNAc(b1-6)]Man(a1-6)[Gal(b1-4)GlcNAc(b1-3)Gal(b1-4)GlcNAc(b1-2)Man(a1-3)]Man(b1-4)GlcNAc(b1-4)[Fuc(a1-6)]GlcNAc
# Procedure, shortened: as §1
# [11] = molecular target: Gal(b1-4)GlcNAc(b1-3)Gal(b1-4)GlcNAc(b1-3)Gal(b1-4)GlcNAc
# Procedure, shortened: as §1
# [12] = molecular target: Gal(b1-4)GlcNAc(b1-3)Gal(b1-4)GlcNAc(b1-3)Gal(b1-4)GlcNAc(b1-2)Man(a1-3)[Gal(b1-4)GlcNAc(b1-3)Gal(b1-4)GlcNAc(b1-3)Gal(b1-4)GlcNAc(b1-2)Man(a1-6)]Man(b1-4)GlcNAc(b1-4)GlcNAc
# Procedure, shortened: as §1
# [13] = molecular target: Gal(b1-4)GlcNAc(b1-3)Gal(b1-4)GlcNAc(b1-3)Gal(b1-4)GlcNAc(b1-2)Man(a1-3)[Gal(b1-4)GlcNAc(b1-3)Gal(b1-4)GlcNAc(b1-3)Gal(b1-4)GlcNAc(b1-2)Man(a1-6)]Man(b1-4)GlcNAc(b1-4)[Fuc(a1-6)]GlcNAc
# Procedure, shortened: as §1
# [14] = molecular target: Gal(b1-4)GlcNAc(b1-3)Gal(b1-4)GlcNAc(b1-3)Gal(b1-4)GlcNAc(b1-2)[Gal(b1-4)GlcNAc(b1-3)Gal(b1-4)GlcNAc(b1-3)Gal(b1-4)GlcNAc(b1-6)]Man(a1-6)[Gal(b1-4)GlcNAc(b1-3)Gal(b1-4)GlcNAc(b1-3)Gal(b1-4)GlcNAc(b1-2)Man(a1-3)]Man(b1-4)GlcNAc(b1-4)[Fuc(a1-6)]GlcNAc
# Procedure, shortened: as §1
# [15] = molecular target: Gal(b1-4)GlcNAc(b1-3)Gal(b1-4)GlcNAc(b1-3)Gal(b1-4)GlcNAc(b1-3)Gal(b1-4)GlcNAc(b1-2)Man(a1-3)[Gal(b1-4)GlcNAc(b1-3)Gal(b1-4)GlcNAc(b1-3)Gal(b1-4)GlcNAc(b1-3)Gal(b1-4)GlcNAc(b1-2)Man(a1-6)]Man(b1-4)GlcNAc(b1-4)GlcNAc
# Procedure, shortened: as §1
# [16] = molecular target: Gal(b1-4)GlcNAc(b1-3)Gal(b1-4)GlcNAc(b1-3)Gal(b1-4)GlcNAc(b1-3)Gal(b1-4)GlcNAc(b1-2)Man(a1-3)[Gal(b1-4)GlcNAc(b1-3)Gal(b1-4)GlcNAc(b1-3)Gal(b1-4)GlcNAc(b1-3)Gal(b1-4)GlcNAc(b1-2)Man(a1-6)]Man(b1-4)GlcNAc(b1-4)[Fuc(a1-6)]GlcNAc
# Procedure, shortened: as §1
# [17] = molecular target: Gal(b1-4)GlcNAc(b1-3)Gal(b1-4)GlcNAc(b1-3)Gal(b1-4)GlcNAc(b1-3)Gal(b1-4)GlcNAc(b1-2)[Gal(b1-4)GlcNAc(b1-3)Gal(b1-4)GlcNAc(b1-3)Gal(b1-4)GlcNAc(b1-3)Gal(b1-4)GlcNAc(b1-6)]Man(a1-6)[Gal(b1-4)GlcNAc(b1-3)Gal(b1-4)GlcNAc(b1-3)Gal(b1-4)GlcNAc(b1-3)Gal(b1-4)GlcNAc(b1-2)Man(a1-3)]Man(b1-4)GlcNAc(b1-4)[Fuc(a1-6)]GlcNAc
# Procedure, shortened: as §1
# [18] = molecular target: Gal(b1-4)GlcNAc(b1-3)Gal(b1-4)GlcNAc(b1-3)Gal(b1-4)GlcNAc(b1-3)Gal(b1-4)GlcNAc(b1-3)Gal(b1-4)GlcNAc(b1-2)Man(a1-3)[Gal(b1-4)GlcNAc(b1-3)Gal(b1-4)GlcNAc(b1-3)Gal(b1-4)GlcNAc(b1-3)Gal(b1-4)GlcNAc(b1-3)Gal(b1-4)GlcNAc(b1-2)Man(a1-6)]Man(b1-4)GlcNAc(b1-4)GlcNAc
# Procedure, shortened: as §1
# [19] = molecular target: Gal(b1-4)GlcNAc(b1-3)Gal(b1-4)GlcNAc(b1-3)Gal(b1-4)GlcNAc(b1-3)Gal(b1-4)GlcNAc(b1-3)Gal(b1-4)GlcNAc(b1-2)Man(a1-3)[Gal(b1-4)GlcNAc(b1-3)Gal(b1-4)GlcNAc(b1-3)Gal(b1-4)GlcNAc(b1-3)Gal(b1-4)GlcNAc(b1-3)Gal(b1-4)GlcNAc(b1-2)Man(a1-6)]Man(b1-4)GlcNAc(b1-4)[Fuc(a1-6)]GlcNAc
# Procedure, shortened: as §1
# [20] = molecular target: Gal(b1-4)GlcNAc(b1-3)Gal(b1-4)GlcNAc(b1-3)Gal(b1-4)GlcNAc(b1-3)Gal(b1-4)GlcNAc(b1-3)Gal(b1-4)GlcNAc(b1-2)[Gal(b1-4)GlcNAc(b1-3)Gal(b1-4)GlcNAc(b1-3)Gal(b1-4)GlcNAc(b1-3)Gal(b1-4)GlcNAc(b1-3)Gal(b1-4)GlcNAc(b1-6)]Man(a1-6)[Gal(b1-4)GlcNAc(b1-3)Gal(b1-4)GlcNAc(b1-3)Gal(b1-4)GlcNAc(b1-3)Gal(b1-4)GlcNAc(b1-3)Gal(b1-4)GlcNAc(b1-2)Man(a1-3)]Man(b1-4)GlcNAc(b1-4)[Fuc(a1-6)]GlcNAc
# Procedure, shortened: as §1
# [21] = molecular target: Gal(b1-4)GlcNAc(b1-3)Gal(b1-4)GlcNAc(b1-3)Gal(b1-4)GlcNAc(b1-3)Gal(b1-4)GlcNAc(b1-3)Gal(b1-4)GlcNAc(b1-3)Gal(b1-4)GlcNAc(b1-2)Man(a1-3)[Gal(b1-4)GlcNAc(b1-3)Gal(b1-4)GlcNAc(b1-3)Gal(b1-4)GlcNAc(b1-3)Gal(b1-4)GlcNAc(b1-3)Gal(b1-4)GlcNAc(b1-3)Gal(b1-4)GlcNAc(b1-2)Man(a1-6)]Man(b1-4)GlcNAc(b1-4)GlcNAc
# Procedure, shortened: as §1
# [22] = molecular target: Gal(b1-4)GlcNAc(b1-3)Gal(b1-4)GlcNAc(b1-3)GalNAc
# Procedure, shortened: as §1
# [23] = molecular target: Gal(b1-4)GlcNAc(b1-3)Gal(b1-4)GlcNAc(b1-3)[Gal(b1-4)GlcNAc(b1-3)Gal(b1-4)GlcNAc(b1-6)]GalNAc
# Procedure, shortened: as §1
binder,measurement,setting,value
PX9937A-bvu-521-23-521 (Bacteroides vulgatus) (protein) LDLAPEDYYGAGNFWKEASQPKAFMLGLHAQLRSYYDMFYTLGELRGGTQRVGTSSLNTSLNYADIRSQNISEDIPGISNWNGLYSPIMQVNHFIQEVENGCTFLDDATRSRYLGQAYGMRALYYFMLYRTFGGVPLITKVDILDGKPSADKFYVERATPEATMEFIKADINKSENYFGNNTSFDAYDWSRYATLMLKAEIYMWAAKVSITGFTATGATDLQTAKTALSGIIGHFELMDNFASIFSCDNKKNTEIIFAMPFIEGEASNDGGRFLYQDAVFLGQAYGRNGKVIEKDTLNLKGTGGVFRDEYTEDFWKTFKEGDSRRDATFMEYYMKNDNGTLSEFGCVMKKRIGTINSNDNRIYISDIPVYRYADALLMMAEIENGLNNPCASYINEVRKRAYGDTFEENKYTEGSYAENELAILQERDKEFVSEGKRWFDVLRMHDASGRSLVFSANANYPGTNPILGTEEAYKMLWPVNIGTLNVNPLLTQTPGYGKK,glycan array binding signal (z-score),[1],-0.225
same,glycan array binding signal (z-score),[2],-0.18
same,glycan array binding signal (z-score),[3],-0.293
same,glycan array binding signal (z-score),[4],-0.205
same,glycan array binding signal (z-score),[5],-0.039
same,glycan array binding signal (z-score),[6],-0.083
same,glycan array binding signal (z-score),[7],1.63
same,glycan array binding signal (z-score),[8],-0.364
same,glycan array binding signal (z-score),[9],-0.387
same,glycan array binding signal (z-score),[10],0.354
same,glycan array binding signal (z-score),[11],-0.132
same,glycan array binding signal (z-score),[12],0.597
same,glycan array binding signal (z-score),[13],0.252
same,glycan array binding signal (z-score),[14],-0.206
same,glycan array binding signal (z-score),[15],-0.268
same,glycan array binding signal (z-score),[16],0.676
same,glycan array binding signal (z-score),[17],-0.266
same,glycan array binding signal (z-score),[18],2.53
same,glycan array binding signal (z-score),[19],1.35
same,glycan array binding signal (z-score),[20],0.091
same,glycan array binding signal (z-score),[21],0.665
same,glycan array binding signal (z-score),[22],0.578
same,glycan array binding signal (z-score),[23],-0.424
